Reference: the supplement of paper PMC11125491
± gives the standard deviation of the averaged measurements. Growth of baker's yeast expressing single-residue variants of Pneumocystis jirovecii dihydrofolate reductase in 8.8 or 44 µM methotrexate (about 75% and 90% inhibition of the wild type). Selection coefficient per generation; 0 = like wild type, above 0 = less sensitive, below 0 = more sensitive or loss of function. No active / inactive call per row; the paper calls resistant above 0.220 (8.8 µM) or 0.243 (44 µM) together with a significance test. At 44 µM about 15% of codons end with one read or none, so the lowest values are floors (replicate rank correlation 0.74; 0.94 at 8.8 µM).

B1: UniProt A0EPZ9; numbered along this chain (parent)
chain: MDWQKSLTLIVALTLSRGIGLKNDLPWKLKSDMMFFSRVTSGLLVTRSTGQMNVVLMGRKTWESLPAHSRPLKNRINVVISRQEVLDLGGGAYHARSLDDALALLSQIYDSTSKIQLNRVFVIGGGELCKAAMEHSRLNRIIATVIHNEVDCDVFFPIDFRSSQSCLPWRKQDHSVLEAWVGSKVPQGKINENGFIYEFEMWIRDI

Variants of: B1
Assay: selection coefficient against synonymous wild-type codons (log2 per generation); higher = faster growth than wild type
Conditions: with Saccharomyces cerevisiae carrying the variant on a plasmid
Procedure: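 Pooled growth of yeast carrying single-residue variants of P. jirovecii dihydrofolate reductase (own DFR1 gene intact), two passages at 30 °C, three cultures, sequenced before and after. Codons with under 15 starting reads are left out; codons of one change are averaged.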

Variant | selection coefficient against synonymous wild-type codons (log2) (methotrexate 8.8 µM) | selection coefficient against synonymous wild-type codons (log2) (methotrexate 44 µM)
D151A | -0.0884 ± 0.048 | -0.141 ± 0.12
D151L | -0.311 ± 0.096 | -0.268 ± 0.19
Q187Y | -0.188 ± 0.033 | -0.274 ± 0.058
Q187H | -0.0514 ± 0.036 | -0.0214 ± 0.074
D153P | -0.208 ± 0.097 | -0.127 ± 0.14
N23G | -0.0801 ± 0.043 | -0.0895 ± 0.12
N23M | -0.0901 ± 0.085 | -0.118 ± 0.13
N23A | 0.00316 ± 0.033 | -0.00545 ± 0.024
E149N | -0.053 ± 0.1 | -0.194 ± 0.14
K5L | -0.134 ± 0.062 | -0.14 ± 0.17
I80E | -0.662 ± 0.02 | -0.16 ± 0.06
I80M | -0.478 ± 0.055 | -0.218 ± 0.15
S31P | -0.109 ± 0.06 | -0.138 ± 0.18
A143Y | 0.033 ± 0.056 | -0.00625 ± 0.15
A143K | -0.0203 ± 0.05 | -0.177 ± 0.1
S163E | 0.00331 ± 0.036 | -0.0246 ± 0.12
I10N | 0.626 ± 0.019 | 0.766 ± 0.011
I10R | -0.184 ± 0.085 | 0.0825 ± 0.12
P168E | 0.0164 ± 0.0057 | -0.00934 ± 0.077
P168Y | -0.29 ± 0.12 | -0.145 ± 0.08
L117K | -0.277 ± 0.047 | -0.181 ± 0.071
L117S | -0.137 ± 0.054 | -0.0917 ± 0.073
G194S | -0.171 ± 0.094 | -0.139 ± 0.18
W180E | 0.269 ± 0.074 | 0.147 ± 0.12

Variant | selection coefficient against synonymous wild-type codons (log2) (methotrexate 8.8 µM) | selection coefficient against synonymous wild-type codons (log2) (methotrexate 44 µM)
R38Y | -0.182 ± 0.047 | -0.195 ± 0.12
L88I | -0.364 ± 0.12 | -0.211 ± 0.12
D173A | -0.169 ± 0.059 | -0.184 ± 0.14
D173Q | -0.156 ± 0.044 | -0.179 ± 0.18
P186H | -0.213 ± 0.21 | -0.185 ± 0.16
P186S | -0.189 ± 0.066 | -0.293 ± 0.12
E134F | -0.246 ± 0.023 | -0.189 ± 0.12
E134K | -0.0473 ± 0.013 | -0.0953 ± 0.11
E134G | -0.164 ± 0.036 | -0.123 ± 0.057
Q51H | -0.102 ± 0.058 | -0.0458 ± 0.087
G188W | -0.262 ± 0.052 | -0.331 ± 0.095
G188L | -0.161 ± 0.063 | -0.235 ± 0.087
I142G | -0.478 ± 0.077 | -0.155 ± 0.18
I142R | -0.335 ± 0.19 | 0.161 ± 0.24
S97K | -0.679 ± 0.092 | -0.219 ± 0.029
F195R | 0.339 ± 0.04 | 0.341 ± 0.046
F195E | 0.309 ± 0.049 | 0.302 ± 0.047
D2V | 0.0451 ± 0.09 | 0.0923 ± 0.13
I158G | 0.0746 ± 0.052 | 0.0462 ± 0.027
E192H | 0.124 ± 0.05 | 0.0522 ± 0.19
E192F | -0.0478 ± 0.045 | -0.139 ± 0.17
Q83C | -0.233 ± 0.13 | -0.286 ± 0.033
A132R | -0.686 ± 0.11 | -0.198 ± 0.13
A132S | -0.469 ± 0.11 | -0.27 ± 0.15

Variant | selection coefficient against synonymous wild-type codons (log2) (methotrexate 8.8 µM) | selection coefficient against synonymous wild-type codons (log2) (methotrexate 44 µM)
H135W | -0.181 ± 0.059 | -0.12 ± 0.13
E63A | -0.289 ± 0.074 | -0.185 ± 0.14
F199D | 0.476 ± 0.037 | 0.675 ± 0.016
L177M | 0.0135 ± 0.026 | -0.0694 ± 0.16
L177F | -0.0839 ± 0.041 | -0.12 ± 0.054
L177K | -0.357 ± 0.035 | -0.127 ± 0.05
L177G | -0.11 ± 0.042 | -0.164 ± 0.1
V39L | 0.244 ± 0.033 | 0.284 ± 0.059
V39M | 0.458 ± 0.025 | 0.54 ± 0.014
L138N | -0.104 ± 0.054 | -0.117 ± 0.12
L138F | 0.277 ± 0.02 | 0.386 ± 0.017
Q107I | -0.358 ± 0.067 | -0.263 ± 0.022
Q107P | -0.551 ± 0.14 | -0.151 ± 0.062
V145Y | 0.0212 ± 0.04 | 0.0723 ± 0.09
V145I | -0.0377 ± 0.086 | -0.0592 ± 0.2
R17L | -0.454 ± 0.1 | -0.205 ± 0.13
R17V | -0.143 ± 0.19 | -0.0469 ± 0.077
E84M | -0.353 ± 0.026 | -0.281 ± 0.048
E84T | -0.211 ± 0.052 | -0.14 ± 0.12
C166S | 0.0169 ± 0.067 | -0.0424 ± 0.1
C166E | 0.0184 ± 0.027 | -0.0635 ± 0.11
S81Q | -0.661 ± 0.051 | -0.201 ± 0.059
V54T | -0.405 ± 0.18 | -0.269 ± 0.051
H94T | -0.454 ± 0.12 | -0.229 ± 0.09

Variant | selection coefficient against synonymous wild-type codons (log2) (methotrexate 8.8 µM) | selection coefficient against synonymous wild-type codons (log2) (methotrexate 44 µM)
Q4K | -0.177 ± 0.093 | -0.261 ± 0.06
Q4A | -0.168 ± 0.094 | -0.255 ± 0.12
S64L | -0.514 ± 0.1 | -0.319 ± 0.098
S64D | 0.00856 ± 0.065 | -0.0743 ± 0.14
Y93I | -0.0526 ± 0.058 | -0.0702 ± 0.048
V150L | -0.151 ± 0.042 | -0.308 ± 0.11
V150K | 0.299 ± 0.052 | 0.235 ± 0.03
D159N | -0.0345 ± 0.13 | -0.0755 ± 0.11
D159T | -0.0361 ± 0.054 | -0.134 ± 0.13
D159S | -0.0725 ± 0.048 | -0.179 ± 0.1
D159W | -0.106 ± 0.054 | -0.211 ± 0.08
G50H | -0.0998 ± 0.028 | -0.146 ± 0.042
G50S | -0.0451 ± 0.049 | 0.0223 ± 0.071
A95V | -0.315 ± 0.091 | -0.234 ± 0.18
A95P | -0.608 ± 0.16 | -0.19 ± 0.057
A95Q | -0.765 ± 0.11 | -0.374 ± 0.036
L102D | -0.637 ± 0.12 | -0.246 ± 0.062
L102H | -0.629 ± 0.14 | -0.196 ± 0.041
T144G | 0.221 ± 0.035 | 0.44 ± 0.044
N77C | 0.23 ± 0.066 | 0.335 ± 0.049
Q172D | -0.0269 ± 0.028 | -0.209 ± 0.013
L105P | -0.519 ± 0.19 | -0.103 ± 0.042
M133E | -0.433 ± 0.13 | -0.314 ± 0.11
M133R | -0.346 ± 0.074 | -0.255 ± 0.1

Variant | selection coefficient against synonymous wild-type codons (log2) (methotrexate 8.8 µM) | selection coefficient against synonymous wild-type codons (log2) (methotrexate 44 µM)
H147E | -0.0512 ± 0.062 | -0.175 ± 0.047
H147M | -0.215 ± 0.1 | -0.265 ± 0.17
H147K | 0.0134 ± 0.084 | -0.128 ± 0.11
D110R | -0.224 ± 0.1 | 0.000768 ± 0.095
D110E | -0.0795 ± 0.018 | -0.049 ± 0.042
D32Q | -0.331 ± 0.085 | -0.135 ± 0.13
D32S | -0.522 ± 0.13 | -0.257 ± 0.1
D32F | -0.581 ± 0.053 | -0.224 ± 0.12
V11R | -0.357 ± 0.12 | -0.23 ± 0.12
V11F | 0.539 ± 0.022 | 0.669 ± 0.0068
S136W | -0.0793 ± 0.016 | -0.149 ± 0.17
L86W | -0.495 ± 0.072 | -0.223 ± 0.26
T61K | -0.515 ± 0.015 | -0.225 ± 0.071
S41V | -0.346 ± 0.08 | -0.321 ± 0.13
N74Y | -0.371 ± 0.21 | -0.0282 ± 0.074
N74I | -0.646 ± 0.071 | -0.187 ± 0.065
N74D | 0.0567 ± 0.026 | 0.0855 ± 0.026
N74A | -0.318 ± 0.089 | -0.15 ± 0.13
G18T | 0.04 ± 0.068 | 0.0751 ± 0.14
G18R | 0.116 ± 0.038 | 0.148 ± 0.049
